Out of some 48,000 compounds screened, about 120 (0.25%) were called active. Roughly 4% stayed inconclusive and do not appear here. The call rests on the fitted dose curve; in most records, active means well fitted activation curve with a large enough effect; inconclusive means small, poorly fitted or top-dose-only effect, or another doubt; inactive means no such curve, though single readings can be large or run the other way. Some of the results follow.
experiment: Primary qHTS for Identification of Small Molecule Activators of Huntingtin-Antisense Promoter Activity; conditions: HEK293 HTT-AS promoter firefly luciferase reporter, 24 h; series mostly up to 57.5 µM; activity change, positive = activation: at the top concentration; further: nearly all actives have a fitted effect of over 55% in size
In short: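 Firefly luciferase signal from promoter-reporter HEK293 cells was scaled between vehicle (0%) and zero RLU (-100%). Compounds were tested at final concentrations of up to 57.5 uM over 24 h at 37 degrees C. PTC124 at 50 uM final served as control inhibitor.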

Activity change, positive = activation, inactive:
Brc1cccc(-c2nnc(CN3CCN(c4ccccn4)CC3)o2)c1 -1.18%
Cc1ccc(S(=O)(=O)Cc2ccc(C(=O)NCCc3ccc(Cl)cc3)o2)cc1 -23.6%
CCc1ccccc1Nc1nn2c(=O)c3ccc(C(=O)NC(C)c4ccccc4)cc3nc2s1 (stereo not drawn) -37.7%
COc1cc2[nH]c(=O)n(CCCC(=O)NCc3ccc(Cl)cc3)c(=O)c2cc1OC -17.7%
Cc1ccc(NC(=O)C(=O)NCC(c2cccnc2)N2CCN(c3ccccc3F)CC2)cc1Cl (stereo not drawn) -23.7%
COc1ccccc1NC(=O)c1sc2nc(C)c(C(=O)Nc3ccc(C)cc3C)c(-c3cccs3)c2c1N -7.19%
CCOc1cc2[nH]c(=O)n(CCCCC(=O)N3CCN(c4cccc(Cl)c4)CC3)c(=O)c2cc1OCC -15.2%
CCc1ccc(CN2CCc3nc(Nc4ccccc4)ncc3C2)cc1 -9.66%
Cc1cccc2sc(N(Cc3cccnc3)C(=O)c3cccs3)nc12 10.6%
CCOC(=O)c1c(C)[nH]c(CCC(=O)NCc2ccc(F)cc2)c1C -8.09%
CC(C)(C)C1CCc2c(sc3nc(-c4cc5cc(Br)ccc5oc4=O)[nH]c(=O)c23)C1 (stereo not drawn) -5.67%
CC(=O)Nc1ccc(NC(=O)c2cc3sccc3n2Cc2ccc(F)cc2)cc1 4.04%
Cc1cnc(CNC(=O)c2c(=O)c3ccc(N4CCCN(C)CC4)nc3n3c2sc2ccccc23)cn1 -23% [at 25.1 µM, percent change from vehicle, -100% = no light]
COC(=O)c1ccc(NC(=O)CN2C(=O)CCc3cc(S(=O)(=O)N4CCCCC4)ccc32)cc1 -30.4%
COc1ccc(S(=O)(=O)NCC(c2ccco2)N2CCN(c3ccccc3)CC2)cc1OC (stereo not drawn) -25.8%
CCOC(=O)c1cc(-c2ccccc2)n(CCCC(=O)Nc2cccc(C)c2C)c1C -32%
Cc1[nH]c(=O)[nH]c(=O)c1S(=O)(=O)N1CCN(c2ccccc2Cl)CC1 -18.5%
O=C(O)CCn1c(=O)c2cccn2c2cccnc21 -7.77%
N#Cc1ccccc1Cn1c(=O)n(-c2cccc(C(F)(F)F)c2)c(=O)c2sccc21 -19.9%
O=C(NC(=O)c1ccc(F)cc1)Nc1ccc(-c2cc(C(F)(F)F)nn2-c2ccccc2)cc1 -6.37%
Cc1oc2c(c(C)cc3oc(=O)c(CC(=O)NCCc4ccccc4)c(C)c32)c1C -18.3%
CN1C(C(=O)c2ccccc2)=C(OC(=O)c2ccc(Br)cc2)c2ccccc2S1(=O)=O -18.6%
Cc1ccc(NC(=O)Nc2ccc3c(c2)N(C)C(=O)c2ccccc2S3)c(C)c1 1.63%
CCOC(=O)c1c(C)[nH]c(C)c1S(=O)(=O)NCC(=O)Nc1cc(C)ccc1OC 3.25%
COc1ccccc1NC(=O)c1c(NCc2ccc(OC)c(OC)c2OC)sc2c1CCCC2 -26.1%
COc1ccc(N2CCN(S(=O)(=O)CCNC(=O)C(c3ccccc3)c3ccccc3)CC2)cc1 -21.3%
CCOC(=O)c1ccc(Nc2nc3ccccc3nc2NS(=O)(=O)c2ccc(Cl)cc2)cc1 -20.6%
CCN1CCN(CCCNC(=O)c2cnn(-c3ccccc3)c2C2CCN(C(=O)OC(C)(C)C)CC2)CC1 -5.29%
Cc1ccc(-c2c(CN3CCN(c4cccc(C(F)(F)F)c4)CC3)csc2C)cc1 -14.4%
COc1cccc(C2C=C(c3ccc(C)c(C)c3)Nc3nnnn32)c1OC (stereo not drawn) -7.05%
O=C(O)CCCC[C@@H]1SC[C@@H]2NC(=O)N[C@@H]21 -5.89%
CN1CCN(c2cc3c(cc2F)c(=O)c(C(=O)O)cn3-c2ccc(F)cc2)CC1 -5.32%
Cc1sc2ncn(CC(=O)N(C)c3ccc(Br)cc3)c(=O)c2c1S(=O)(=O)N1CCC(C)CC1 -3.5%
Cc1nc2c(C(=O)NCc3ccccc3)c[nH]n2c(=O)c1Cc1ccccc1Cl -30.5%
Cc1cccc(OCC(O)CNC(C)(C)C)c1C (stereo not drawn) -14%
Cc1cccc(NC(=O)c2c(C)oc3ncn(CC(C)C)c(=O)c23)n1 -2.29%
CC(=O)N1CCc2cc(S(=O)(=O)CCC(=O)N3CCN(c4cccc(C)c4C)CC3)ccc21 -7.39%
O=C(NCCc1ccccc1)c1cc(-c2ccc(Cl)cc2)on1 4.2%
COc1cccc(NC(=O)Nc2cccc(-c3cn4cccnc4n3)c2)c1 6.06%
CCOc1ccc(-c2nnc(Nc3ccc(S(N)(=O)=O)cc3)c3ccccc23)cc1 6.31% [at 11.5 µM, percent change from vehicle, -100% = no light]
Cc1cc(C)c(NC(=O)CSc2nc(=O)[nH]c3c2CCCC3)c(C)c1 -21.5%
CC(C)(C)c1ccc(OCC(=O)N2CCC(c3nc4ccccc4s3)CC2)cc1 2.91% [at 11.5 µM, percent change from vehicle, -100% = no light]
CCCOC1(C(F)(F)F)NC(=O)N(c2ccc(Cl)cc2)C1=O (stereo not drawn) -24.7%
CCC(=O)N1c2ccccc2CC1C(=O)NCc1ccc(OC(C)C)cc1 (stereo not drawn) -26.9%
CCN(CCCNC(=O)Cn1ncc2c([nH]c3ccc(C)cc32)c1=O)c1cccc(C)c1 -2.77%
COc1ccc(C2CC(=O)Nc3c2c(C)nn3-c2nncc(-c3ccc(C)cc3)n2)c(OC)c1OC (stereo not drawn) -14.9%
Cc1csc2nc(-c3cccc(NC(=O)C(C)C)c3)cn12 17.8%
CCc1ccccc1NC(=O)c1ccc2c(c1)N(Cc1cccc(Cl)c1)C(=O)c1ccccc1S2(=O)=O -12.7%
CCOc1ccc(-c2nc(SCC(=O)Nc3ccc4c(c3)OCO4)c(-c3ccc(F)cc3)[nH]2)cc1 -11.6%
CCOC(=O)Nc1ccc(NCc2ccc(F)cc2)nc1N
Cc1ccc(C)c(CN2C(=O)C(=O)c3ccccc32)c1 -25.2%
COc1cc(NC(=O)c2ccc(C)cc2)ccc1NC(=O)c1cc2ccccc2o1 10.3%
COCC(=O)Nc1c(I)c(C(=O)NCC(O)CO)c(I)c(C(=O)N(C)CC(O)CO)c1I (stereo not drawn) -10.8%
O=C1CSC2(C(=O)N(Cc3ccccc3F)c3ccccc32)N1c1ccc(F)cc1 (stereo not drawn) -36.8%
O=C(NCCc1ccccc1)c1ccc(CS(=O)(=O)c2ccc(Br)cc2)o1 -16.9%
COc1ccc(-n2ccnc2SCC(=O)Nc2ccc(F)cc2F)cc1 -12.9%
CCSc1nnc2n(-c3cccc(C)c3)c(=O)c3c4c(sc3n12)CCCC4 -0.74%
Cc1coc2ccccc2c1=O 3.18%
COc1ccc(CCC(=O)N2CCc3c([nH]c4ccccc34)C2c2ccc(F)cc2)cc1 (stereo not drawn) -33.3%
Cc1ccc2onc(CNC(=O)N3CCN(c4cccc(C)c4C)CC3)c2c1 -27.3%
COC(=O)c1c(-c2cccs2)csc1NC(=O)COc1ccc(C(C)(C)C)cc1 -8.03%
CCOc1ccccc1NC(=O)c1nn(-c2ccc(C)cc2)c(=O)n(C)c1=O -10.4%
CCOc1ccccc1C1C(C(=O)N2CCCCC2)=C(C)Nc2nc3ccccc3n21 (stereo not drawn) -14.3%
Cc1ccc(C(=O)Nc2ccc(-c3cn4cccnc4n3)cc2)cc1C 18%
COc1ccccc1CNc1ccc(-c2nc(-c3cccnc3)no2)cc1[N+](=O)[O-] 11.4%
CCc1ccc(NC(=O)c2sc(-n3nc(C)c(Cc4ccc(OC)cc4)c3C)nc2C)cc1 -19.6%
COc1ccc(N(C)C(=O)CCn2cnc3onc(-c4ccc(F)cc4)c3c2=O)c(OC)c1 -31.9%
COc1cccc(NC(=O)CN2C(=O)c3cccnc3Oc3ccc(Cl)cc32)c1 -18.3%
O=C(NCC1CCN(Cc2cccc(Cl)c2)CC1)Nc1cc(Cl)ccc1Cl -27.1%
CC(C)(C)OC(=O)N1CCC(c2c(C(=O)N3CCC(c4ccccc4)C3)cnn2-c2cccc(Cl)c2)CC1 (stereo not drawn) -35.3%
N[C@@H](CSSC[C@H](N)C(=O)O)C(=O)O -7.34% [at 0.74 µM, percent change from vehicle, -100% = no light]
CCCCCS(=O)(=O)c1oc(-c2cccs2)nc1S(=O)(=O)c1ccc(C)cc1 -10.3%
CCCCN(CCCC)C(=O)c1cc2c(=O)n3cccc(C)c3nc2s1 -13.7%
COc1ccc(C2CC(=O)N(CC(=O)Nc3cc(C)ccc3C)c3ccccc3S2)cc1 (stereo not drawn) -18%
Cc1cccc(OCC(=O)N(Cc2cccs2)c2ccc(Cl)cc2)c1C -32.2%
O=C1c2oc3ccccc3c(=O)c2C(c2ccccc2)N1Cc1ccc2c(c1)OCO2 (stereo not drawn) 6.23%
CN1C(=O)c2ccccc2Sc2ccc(NC(=O)c3ccccc3F)cc21 -41.8%
Cc1c(-c2nsc(NC(=O)c3ccccc3)n2)nnn1-c1ccc(C(F)(F)F)c(Cl)c1 -19.7%
CCOC(=O)c1cccc(NC(=O)[C@@H](c2ccccc2)N2Cc3ccccc3C2=O)c1 -22.9%
Cc1cc(C)c(NC(=O)Cc2csc(C)n2)c(Cl)c1 -2.53%
CC1COc2c(N3CCN(C)CC3)c(F)cc3c(=O)c(C(=O)O)cn1c23 (stereo not drawn)
CCN1C(=O)c2ccccc2Sc2ccc(C(=O)NCCCN(CC(C)C)CC(C)C)cc21 -5.52%
CCOC(=O)c1c(S(=O)(=O)N2CCCC(C(=O)Nc3cccc(Cl)c3)C2)c(C)n(C)c1C (stereo not drawn) 0%
CCCCN(CC)CCCNC(=O)CCN1N=C(c2ccc(OC)cc2)CCC1=O -5.95%
COc1ccccc1NC(=O)C(=O)NCCc1csc(-c2cccc(F)c2)n1 -27.8%
COc1cccc(CNC(=O)c2cc3c(s2)-c2ccccc2OC3)c1 -6.15%
COc1ccc(-n2c(=O)c3c4c(sc3n(Cc3ccc(F)cc3)c2=O)CCCC4)c(OC)c1 -3.86%
COc1ccccc1NC(=O)C1=C(C)Nc2ncnn2C1c1ccccc1C(=O)O (stereo not drawn) -1.04%
COc1ccc(NC(=O)c2cc(C3CC3)nc3c2c(C)nn3-c2ccccc2)cc1 -23.8%
CCOc1ccccc1C(=O)Nc1ccc2nc(N(CC)CC)cc(C)c2c1 -3.96%
Cc1ccc(OCC(=O)Nc2nnc(SCc3cc(=O)c4ccccc4[nH]3)s2)cc1 -18.4%
Cc1cc(N2CCCCC2)nc2ccc(NC(=O)c3cccc(Cl)c3)cc12 0%
CCOc1ccc(CNS(=O)(=O)c2cc3c(cc2C)NC(=O)CO3)cc1OC -18.1%
